For 42 sequences, binding signal results are on record in publication PMC7819943, “Rice protein-binding microarrays: a tool to detect cis-acting elements near promoter regions in rice”.

Some of the results follow.

This assay concerns the target T1, OsWOX13 (Oryza sativa, UniProt Q5QMM3 1-267).
T1 sequence: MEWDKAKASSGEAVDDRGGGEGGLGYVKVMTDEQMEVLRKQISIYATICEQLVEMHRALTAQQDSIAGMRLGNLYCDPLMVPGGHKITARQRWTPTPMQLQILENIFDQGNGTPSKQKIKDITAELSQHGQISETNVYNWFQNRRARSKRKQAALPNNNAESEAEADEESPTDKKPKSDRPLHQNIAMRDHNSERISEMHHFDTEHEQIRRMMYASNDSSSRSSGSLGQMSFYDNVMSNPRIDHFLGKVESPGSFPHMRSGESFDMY
Kind of assay: protein-binding microarray (RPBM); PBS, 2% BSA, 51.3 ng/ul salmon testes DNA, 50 uM zinc acetate, 200 nM TF, 25 C, 1 h; high values mean tight binding. The conditions noted are these: protein: recombinant; tags: N-terminal polyhistidine and DsRed monomer fusion (pET32a); label: CyDye5-dUTP incorporated in the synthesized complementary strand; 3' TTTTT single-stranded linker to array surface; dsDNA, one strand shown. In outline:
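Transcription factors were each fused at the N-terminus to a polyhistidine tag plus DsRed and expressed in E. coli BL21-CodonPlus before Ni–NTA purification. Binding to a double-stranded custom Agilent array was carried out with 200 nM protein at 25 °C for 1 h in PBS, 2% BSA, salmon testes DNA and 50 µM zinc acetate. The binding signal is per-feature fluorescence intensity, in arbitrary units, on an Axon 4000B scanner.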
On to “AAAATAACTAATTGCACAGATTGTGACTAATTTGCGAGACCGGAGTCACCTAGTGCAG”, for which the binding signal is 34900 fluorescence intensity (a.u.).

On to “CCAGGTTAATTTATGCTTAATTAATTACTACTTTTCTCTTCGGAGTCACCTAGTGCAG”, for which the binding signal is 47800 fluorescence intensity (a.u.).

Regarding “GTTTCTTAATTAAATTCGATGCGCGTGTCCACGGCCTGCACGGAGTCACCTAGTGCAG”, the binding signal is 12500 fluorescence intensity (a.u.).

In the case of “CATTGTTTAATTATCAACGAGTATCATCAAAATATCATCCCGGAGTCACCTAGTGCAG”, the binding signal was 6840 fluorescence intensity (a.u.).

Consider “CACTTTGACAGCCATGTGCCGCGGCGCCTGTGGATTATTCCGGAGTCACCTAGTGCAG”, for which the binding signal is 3730 fluorescence intensity (a.u.).

Take “CGCCGGCGCTGTGATTGATAGCCTTGCAAACCAGGGTTTGCGGAGTCACCTAGTGCAG”: the binding signal was 29500 fluorescence intensity (a.u.).

Take “TTTATCGTACAATTACAATATAATTATAACGTATACCATGCGGAGTCACCTAGTGCAG”: the binding signal was 5240 fluorescence intensity (a.u.).

Take “TGATGACTGTAGTTTGCTTGTTCCGAATGATTTATCCTATCGGAGTCACCTAGTGCAG”: the binding signal was 4390 fluorescence intensity (a.u.).

With “TGTAACATGATAATTTAACTCGGCTCTTTTCAGAATATTTCGGAGTCACCTAGTGCAG”, the binding signal is 10200 fluorescence intensity (a.u.).

For the sequence “ATCAATTTTAAAATTAAATTTTAATTTTAAATTTTGAATTCGGAGTCACCTAGTGCAG”, the binding signal was 26900 fluorescence intensity (a.u.).

“TCATTAAATACAAATTATGCGGATCGGGTATCCTTACTGTCGGAGTCACCTAGTGCAG”: the binding signal is 3470 fluorescence intensity (a.u.).

For “GCACCTTTCAAATTCATCTGATTTATGCATTCTTCTGTAACGGAGTCACCTAGTGCAG”, the binding signal was 3340 fluorescence intensity (a.u.).

Consider “AACTTATTCCAATTATCAAACTCCGCTGCTCAACCAGGCCCGGAGTCACCTAGTGCAG”, for which the binding signal was 5860 fluorescence intensity (a.u.).

With “CATTAATATATAATTAATTAAATATTAGCTATATTTTGAACGGAGTCACCTAGTGCAG”, the binding signal is 41000 fluorescence intensity (a.u.).

For the sequence “AACAATTGACGTTTTGGATAAGGTTGAAGTCAAACTTTTACGGAGTCACCTAGTGCAG”, the binding signal is 7430 fluorescence intensity (a.u.).

As for “CCTTGTTTTGAAGATTTAATTGCAACGAATTTAATGGTGCCGGAGTCACCTAGTGCAG”, the binding signal was 3290 fluorescence intensity (a.u.).

On to “AGATTAATTGTGTATCTGTGCCATCTGTCGGTAACATTACCGGAGTCACCTAGTGCAG”, for which the binding signal is 15400 fluorescence intensity (a.u.).

As for “AATGTTAATCACACAATGAAAATTATGCAAGAAGAGGTAACGGAGTCACCTAGTGCAG”, the binding signal was 6380 fluorescence intensity (a.u.).

On to “CTCCAATCAACCGTCCAATTCAGTCATACTCCGTAGTCCGCGGAGTCACCTAGTGCAG”, for which the binding signal was 22600 fluorescence intensity (a.u.).

Take “ATGATTTTAGCTAAACCGAAATCTACACACAAGGAGTACTCGGAGTCACCTAGTGCAG”: the binding signal was 6130 fluorescence intensity (a.u.).

On to “GCAAAATGGAAAAGATTAAACAGCTATATCAATGAGGATTCGGAGTCACCTAGTGCAG”, for which the binding signal was 3300 fluorescence intensity (a.u.).

Regarding “ATAACTTAATCACATTTCCACACACACTGTTAACTTGAACCGGAGTCACCTAGTGCAG”, the binding signal is 6070 fluorescence intensity (a.u.).

As for “AAAGTTTAAATTGTCAAAATTTTGTCGTATACTGTCCCTACGGAGTCACCTAGTGCAG”, the binding signal is 6000 fluorescence intensity (a.u.).

In the case of “AATAATTTTATGGTTATTTAAAACATTTAAATTTGAGACTCGGAGTCACCTAGTGCAG”, the binding signal is 9060 fluorescence intensity (a.u.).

With “ACATTATAAATTTGCTATTGTTGCAATTTGGACCACCACGCGGAGTCACCTAGTGCAG”, the binding signal is 4640 fluorescence intensity (a.u.).

As for “TAGTAACTGATGTGTGTGTGTGTGCAGTCTCCGTGCGTGTCGGAGTCACCTAGTGCAG”, the binding signal was 6590 fluorescence intensity (a.u.).

Turning to “AAAACAGATACCAATAGATGATTAGATGAAGTGAGGAGAGCGGAGTCACCTAGTGCAG”, the binding signal is 6570 fluorescence intensity (a.u.).

Take “AAAATAGCTAATGCTTAATTAATCACGCGCTAATGGATCGCGGAGTCACCTAGTGCAG”: the binding signal was 6230 fluorescence intensity (a.u.).

For the sequence “GCACATTAACTGATCACACCATCATCGCATCAAAGATGCACGGAGTCACCTAGTGCAG”, the binding signal is 7430 fluorescence intensity (a.u.).

Consider “TTAAATAATAAGAATTGTTGATTGCATATAATTAGTTTACCGGAGTCACCTAGTGCAG”, for which the binding signal is 9070 fluorescence intensity (a.u.).

“GTGGAACCCTAATTGAAGTCGATTTCTGGTAGTACAAGTTCGGAGTCACCTAGTGCAG”: the binding signal was 10700 fluorescence intensity (a.u.).

“TTGACTATTAAATTGGCTATAGATAAATTGGAGCTAGTAGCGGAGTCACCTAGTGCAG”: the binding signal is 23600 fluorescence intensity (a.u.).

Turning to “GACTTTATAATTTTACTATTCTATTATAAAATCAGTCAATCGGAGTCACCTAGTGCAG”, the binding signal is 4190 fluorescence intensity (a.u.).

On to “GCTAGATTGGAAGTGGGCAAGGAAGCCGCTTTCTCCCGTACGGAGTCACCTAGTGCAG”, for which the binding signal was 27500 fluorescence intensity (a.u.).

With “GATGATTTGGAACCATCAGTTGGCTATACTATTAAACTTGCGGAGTCACCTAGTGCAG”, the binding signal is 31800 fluorescence intensity (a.u.).

Regarding “CATATAATTTCCTCTGTTTCGCAACCATACTTTGAGAGCCCGGAGTCACCTAGTGCAG”, the binding signal was 6960 fluorescence intensity (a.u.).

With “TTCTTGTTGAAATTTGTAATTTAAGATGCATGAGACCACACGGAGTCACCTAGTGCAG”, the binding signal was 3210 fluorescence intensity (a.u.).

For the sequence “CACAACAATCAATAATGCCAATAATTAATGCAGGTGTGTTCGGAGTCACCTAGTGCAG”, the binding signal is 26200 fluorescence intensity (a.u.).

In the case of “CACCATAATTTGACAATGTGGTGCTACAATAAACATTTGCCGGAGTCACCTAGTGCAG”, the binding signal is 12600 fluorescence intensity (a.u.).

“TTATAATATAATTACATTATGATTATATTATATTTACGTCCGGAGTCACCTAGTGCAG”: the binding signal is 36600 fluorescence intensity (a.u.).

Regarding “CTACGGTAATTTATCTTTAGAGGCGAAACTTCAAATGTATCGGAGTCACCTAGTGCAG”, the binding signal is 5470 fluorescence intensity (a.u.).

In the case of “AACAGATTTATAATTAGTCCCTAAAATAAGTCCAAAACTCCGGAGTCACCTAGTGCAG”, the binding signal was 11200 fluorescence intensity (a.u.).
